The source of these data is article PMC10668032.

The other results are listed elsewhere or left out. At the low end of the ranking the order means little.

The experiment deals with SIX1-Q177R homeodomain (UniProt Q15475). The experiment is described as follows: universal protein binding microarray. The note with it: Universal all-10-mer PBM (8x60K, AMADID 030236), 300 nM GST-tagged protein, Alexa Fluor 488 anti-GST; buffer, salt, pH and temperature not stated; high values mean tight binding; most listed sequences are background and not binding sites; double strand, one strand shown.
With ACAGTAAT, the binding signal is -0.0603 E-score.
Take ATACCCAT: the binding signal worked out at 0.132 E-score.
As to GCGGTAGA, the binding signal is -0.0852 E-score.
AACGATCC: the binding signal was -0.00388 E-score.
To CGCCAAGC belongs -0.178 E-score; to AAGTATAG, -0.31 E-score; to CCCTAGAC, 0.064 E-score.
Regarding TGAAGGCA, the binding signal is -0.115 E-score.
To TGACCAAA belongs -0.2 E-score.
To ACCCACAT belongs 0.0969 E-score; to CTAAACGA, -0.0511 E-score; to CGTTGACA, 0.231 E-score.
To CCCTTAGC belongs -0.0905 E-score; to CAATGTGG, 0.0263 E-score; to AGTCTCCG, -0.174 E-score.
Consider CCGTCATC, for which the binding signal was -0.162 E-score.
To CGTTCACC belongs -0.137 E-score; to AATATATG, 0.0814 E-score.
To GGGCGAAA belongs -0.146 E-score; to ACGCTAGC, -0.052 E-score.
In the case of AACACCTC, the binding signal was determined as 0.456 E-score.
For the sequence ATCTGCTG, the binding signal is -0.284 E-score.
To CGACTGGA belongs 0.0117 E-score; to CCGAGAAA, -0.127 E-score; to ATCGTCCA, -0.114 E-score.
To AGTATCTA belongs 0.0927 E-score.
To GCTCTTCC belongs 0.0751 E-score; to ATGAGTTC, -0.213 E-score.
Take CGGAGGGA: the binding signal came to 0.0529 E-score.
To ATGTCTGC belongs -0.152 E-score; to AAATCTAT, -0.219 E-score; to TAGAGAGA, -0.181 E-score.
With CATGAAGC, the binding signal was -0.121 E-score.
To CATCTTCC belongs -0.077 E-score; to CATAACTC, 0.116 E-score.
To TAATGTGA belongs -0.0343 E-score; to ACGGGATA, 0.0464 E-score; to AAACCGGG, -0.0346 E-score.
To GGAGGAAC belongs -0.156 E-score; to AAACGACC, -0.179 E-score; to CAACCGCA, 0.0146 E-score.
TCTTCTAA: the binding signal was 0.0555 E-score.
For the sequence CCACTGGG, the binding signal was -0.0414 E-score.
For the sequence GGGAGCGA, the binding signal amounted to 0.0375 E-score.
To AGTCTCAA belongs -0.0788 E-score.
On to CCTAGAAG, for which the binding signal was -0.128 E-score.
For AAAACCCC, the binding signal worked out at 0.135 E-score.
To GCTATAGA belongs -0.117 E-score; to ACGGCGAC, -0.013 E-score.
To ACCAGCGC belongs -0.0638 E-score; to AGCTAGAG, -0.215 E-score; to AGGGCTAT, 0.0605 E-score.
For ACAACCTA, the binding signal is 0.0255 E-score.
To ACGGGCCC belongs -0.0988 E-score; to GTAGGGTA, 0.193 E-score; to GGAGTTAC, 0.131 E-score.
With CTCCGTCA, the binding signal is -0.0678 E-score.
To GTCTATCA belongs -0.0433 E-score.
To CCTACTAG belongs -0.00787 E-score; to AGGTCTCA, -0.0169 E-score.
Consider GGGGCTCA, for which the binding signal was -0.0282 E-score.
To CACGAGAG belongs 0.128 E-score.
In the case of AACGCGTT, the binding signal is -0.0855 E-score.
To ATGTATTG belongs -0.15 E-score; to ACGTTTAT, -0.233 E-score.
Consider CGTCAAAG, for which the binding signal was -0.141 E-score.
Consider AACCGTGG, for which the binding signal was -0.12 E-score.
To CCCAATGC belongs -0.174 E-score; to GTCGGAAC, -0.0223 E-score.
To ACTTATAC belongs -0.0896 E-score; to ACAGTATA, 0.0566 E-score.
To ACCTGAAG belongs -0.0528 E-score; to ATGCGGAA, -0.0624 E-score.
Regarding AGCTATGA, the binding signal is -0.0498 E-score.
CCTGTCAC: the binding signal was 0.0707 E-score.
On to CCTGTTAC, for which the binding signal amounted to 0.0701 E-score.
On to CAACATTC, for which the binding signal was -0.0808 E-score.
To GGTCTCGA belongs -0.0221 E-score; to AACTAGAT, -0.0303 E-score.
To TCTCGCCA belongs -0.145 E-score.
To AATAGGTA belongs 0.00382 E-score.
ACGGATCA: the binding signal was 0.172 E-score.
To CATTAACG belongs 0.122 E-score.
As for AACCGACC, the binding signal is 0.0154 E-score.
To CAACAGAC belongs -0.142 E-score; to GATCGAAC, -0.0707 E-score; to CCCAGATC, 0.0955 E-score.
In the case of GATTCAGA, the binding signal was -0.147 E-score.
To TACGTTGA belongs 0.0732 E-score; to CCTAAAAG, -0.0547 E-score; to AATCCCAG, 0.019 E-score.
For the sequence AGCCACGG, the binding signal was -0.0128 E-score.
AATCGGAA: the binding signal is -0.00594 E-score.
To GAGCGGCC belongs -0.0204 E-score; to GTGACGGA, -0.0818 E-score; to ATGTCAGC, -0.0913 E-score.
To CGGATAAA belongs 0.211 E-score.
To GCTAACAA belongs -0.315 E-score.
With TGTCGTAA, the binding signal is 0.163 E-score.
To CCTCTACC belongs 0.0962 E-score; to AATTGTCT, -0.0675 E-score; to ACGCGATC, 0.0255 E-score.
To TATACGAA belongs -0.0279 E-score; to GTTCAGAA, 0.18 E-score; to TCTCTTCA, -0.256 E-score.
To ATTTCTAG belongs -0.0981 E-score.
With CTATATTA, the binding signal is -0.0984 E-score.
For the sequence GACATGGC, the binding signal was -0.0631 E-score.
Take CTTGACAA: the binding signal worked out at 0.0917 E-score.
CCTTTGAA: the binding signal is -0.154 E-score.
To GGACAGGA belongs -0.247 E-score; to GATTGTCA, -0.186 E-score.
To AGACCTGA belongs -0.155 E-score; to CGGGTCCA, 0.128 E-score; to TTAATTAA, -0.0342 E-score.
Take ATCTACCC: the binding signal was found to be 0.117 E-score.
To AAGGGAAA belongs -0.133 E-score; to GCACGAGA, -0.0569 E-score.
Consider CTCTGTTA, for which the binding signal worked out at 0.0956 E-score.
As to TAACACTA, the binding signal stood at 0.384 E-score.
To ACGACGAA belongs -0.118 E-score.
With CGTGTACC, the binding signal was determined as 0.436 E-score.
To GTCATACA belongs 0.102 E-score; to CAGAGTCG, 0.124 E-score; to CTTACGTA, -0.23 E-score.
To ATCAATCC belongs 0.0466 E-score; to CCTAAAGC, -0.202 E-score; to GGTGTCCA, 0.48 E-score.
To TCTGAGAA belongs -0.249 E-score; to CATCTAGC, -0.172 E-score; to GGACGATA, 0.113 E-score.
As to ACCTAAAG, the binding signal was -0.0644 E-score.
To TCAGCAAA belongs -0.3 E-score; to AATGGGGA, -0.21 E-score; to ACAGAGAT, -0.181 E-score.
To AGACCATC belongs -0.249 E-score; to ACATTGAA, -0.161 E-score; to CACTATTC, 0.078 E-score.
Regarding GTAGCTGA, the binding signal is 0.0461 E-score.
To ATTAGTAA belongs -0.15 E-score.
As for CAAAACGA, the binding signal is -0.0491 E-score.
Take AACAGACC: the binding signal was -0.0836 E-score.
With ACAACTGG, the binding signal was -0.00601 E-score.
With AGCGGAAT, the binding signal was -0.117 E-score.
To ATGCGTAC belongs 0.0811 E-score.
To GGCGCAAA belongs -0.0903 E-score; to TAGCGGAA, -0.236 E-score.
To AGGTTCTC belongs -0.0803 E-score.
As for AAGTGAGA, the binding signal is -0.201 E-score.
To GACCACGC belongs -0.0824 E-score.
Turning to AAGAAAAA, the binding signal was -0.188 E-score.
To AACTTGGA belongs 0.107 E-score.
To CAGTAAAC belongs -0.0308 E-score; to CGGTTCAG, -0.0447 E-score.
CAGAACCC: the binding signal turned out to be 0.109 E-score.
To TCCGATCA belongs -0.0591 E-score; to CAGATTCC, -0.0492 E-score; to GATGTGTA, 0.19 E-score.
As to AGAAGTCT, the binding signal is -0.233 E-score.
With CCCTCACG, the binding signal was determined as 0.165 E-score.
To AGACATGC belongs -0.175 E-score; to CCAACCGA, -0.0171 E-score; to CTAGTTCA, -0.113 E-score.
To AAATTTCC belongs -0.188 E-score; to ACACCACT, 0.483 E-score.
To CACCGTAC belongs 0.365 E-score; to GAAAAGAC, -0.0422 E-score; to AACATTCC, -0.265 E-score.
For CTTGTAAA, the binding signal was -0.032 E-score.
To CGAATCGC belongs 0.00297 E-score; to AGACTTCC, -0.162 E-score; to AAAGATTA, -0.183 E-score.
